Reference: patent publication US20200138970A1 (Bayer, published 2020)

T1: human B7H3 on cancer cell lines (human, UniProt Q5ZPR3 29-534)
T1 sequence (looked up): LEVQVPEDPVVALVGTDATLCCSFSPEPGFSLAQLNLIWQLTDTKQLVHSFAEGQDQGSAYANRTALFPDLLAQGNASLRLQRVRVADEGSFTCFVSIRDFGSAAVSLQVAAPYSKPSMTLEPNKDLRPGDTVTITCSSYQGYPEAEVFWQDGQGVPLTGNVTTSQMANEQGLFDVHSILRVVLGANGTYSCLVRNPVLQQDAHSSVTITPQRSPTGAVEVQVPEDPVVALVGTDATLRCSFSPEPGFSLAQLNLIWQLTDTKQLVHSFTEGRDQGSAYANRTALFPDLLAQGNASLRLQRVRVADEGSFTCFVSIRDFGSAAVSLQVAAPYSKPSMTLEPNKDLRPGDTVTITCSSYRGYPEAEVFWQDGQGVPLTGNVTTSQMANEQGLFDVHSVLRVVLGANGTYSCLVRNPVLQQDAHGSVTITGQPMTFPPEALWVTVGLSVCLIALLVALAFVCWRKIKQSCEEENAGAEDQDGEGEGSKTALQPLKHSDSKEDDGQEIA

B1: ADC Example 257-8382 (antibody, human IgG1, lambda)
heavy: EVQLLESGGGLVQPGGSLRLSCAASGFTFSSYAMSWVRQAPGKGLEWVSSISGSGGSTLYADSVKGRFTISRDNSKNTLYLQMNSLRAEDTAVYYCAKLTGTSFDYWGQGTLVTVSS[left out - human IgG1 constant region]
light: QSVLTQPPSASGTPGQRVTISCSGSSSNIGSNPVNWYQQLPGTAPKLLIYSNNQRPSGVPDRFSGSKSGTSASLAITGLQSEDEADYYCQSFDSSLKKVFGGGTKLTVLGQPKAAPSVTLFPPSSEELQANKATLVCLISDFYPGAVTVAWKADSSPVKAGVETTTPSKQSNNKYAASSYLSLTPEQWKSHRSYSCQVTHEGSTVEKTVAPTECS
modifications: drug-linker from Intermediate F257 on Cys, sites not stated
B2: ADC Example 208-7611 (antibody, human IgG1, lambda)
heavy: EVQLLESGGGLVQPGGSLRLSCAASGFTFRSYAMSWVRQAPGKGLEWVSSVSGSGGSALYADSVKGRFTISRDNSKNTLYLQMNSLRAEDTAVYYCTRLTGTSFDYWGQGTLVTVSS[left out - human IgG1 constant region with changes]
light: QSVLTQPPSASGTPGQRVTISCSGSSSNIGSNPVNWYQQLPGTAPKLLIYGNSNRPSGVPDRFSGSKSGTSASLAISGLRSEDEADYYCQSFDSSLKKVFGGGTKLTVLGQPKAAPSVTLFPPSSEELQANKATLVCLISDFYPGAVTVAWKADSSPVKAGVETTTPSKQSNNKYAASSYLSLTPEQWKSHRSYSCQVTHEGSTVEKTVAPTECS
modifications: drug-linker from Intermediate F104 on Cys, sites not stated
B3: ADC Example 208-8322 (antibody, human IgG1, lambda)
heavy: EVQLLESGGGLVQPGGSLRLSCAASGFTFSSYGMHWVRQAPGKGLEWVSAISGSGGSTYYADSVKGRFTISRDNSKNTLYLQMNSLRAEDTAVYYCARGYYYYGMDVWGQGTLVTVSS[left out - human IgG1 constant region]
light: QSVLTQPPSASGTPGQRVTISCSGGSSNIGSNPVNWYQQLPGTAPKLLIYGNSKRPSGVPDRFSGSKSGTSASLAISGLRSEDEADYYCQSYDSSLSGWVFGGGTKLTVLGQPKAAPSVTLFPPSSEELQANKATLVCLISDFYPGAVTVAWKADSSPVKAGVETTTPSKQSNNKYAASSYLSLTPEQWKSHRSYSCQVTHEGSTVEKTVAPTECS
modifications: drug-linker from Intermediate F104 on Cys, sites not stated
B4: ADC Example 263-6497 (antibody, human IgG1, lambda)
heavy: EVQLLESGGGLVQPGGSLRLSCAASGFTFRSYAMSWVRQAPGKGLEWVSSVSGSGGSALYADSVKGRFTISRDNSKNTLYLQMNSLRAEDTAVYYCTRLTGTSFDYWGQGTLVTVSS[left out - human IgG1 constant region]
light: QSVLTQPPSASGTPGQRVTISCSGSSSNIGSNPVNWYQQLPGTAPKLLIYGNSNRPSGVPDRFSGSKSGTSASLAISGLRSEDEADYYCQSFDSSLKKVFGGGTKLTVLGQPKAAPSVTLFPPSSEELQANKATLVCLISDFYPGAVTVAWKADSSPVKAGVETTTPSKQSNNKYAASSYLSLTPEQWKSHRSYSCQVTHEGSTVEKTVAPTECS
modifications: drug-linker from Intermediate F263 on Cys, sites not stated
B5: ADC Example 267-6497 (antibody, human IgG1, lambda)
heavy: EVQLLESGGGLVQPGGSLRLSCAASGFTFRSYAMSWVRQAPGKGLEWVSSVSGSGGSALYADSVKGRFTISRDNSKNTLYLQMNSLRAEDTAVYYCTRLTGTSFDYWGQGTLVTVSS[left out - human IgG1 constant region]
light: QSVLTQPPSASGTPGQRVTISCSGSSSNIGSNPVNWYQQLPGTAPKLLIYGNSNRPSGVPDRFSGSKSGTSASLAISGLRSEDEADYYCQSFDSSLKKVFGGGTKLTVLGQPKAAPSVTLFPPSSEELQANKATLVCLISDFYPGAVTVAWKADSSPVKAGVETTTPSKQSNNKYAASSYLSLTPEQWKSHRSYSCQVTHEGSTVEKTVAPTECS
modifications: drug-linker from Intermediate F267 on Cys, sites not stated
B6: ADC Example 271-6497 (antibody, human IgG1, lambda)
heavy: EVQLLESGGGLVQPGGSLRLSCAASGFTFRSYAMSWVRQAPGKGLEWVSSVSGSGGSALYADSVKGRFTISRDNSKNTLYLQMNSLRAEDTAVYYCTRLTGTSFDYWGQGTLVTVSS[left out - human IgG1 constant region]
light: QSVLTQPPSASGTPGQRVTISCSGSSSNIGSNPVNWYQQLPGTAPKLLIYGNSNRPSGVPDRFSGSKSGTSASLAISGLRSEDEADYYCQSFDSSLKKVFGGGTKLTVLGQPKAAPSVTLFPPSSEELQANKATLVCLISDFYPGAVTVAWKADSSPVKAGVETTTPSKQSNNKYAASSYLSLTPEQWKSHRSYSCQVTHEGSTVEKTVAPTECS
modifications: drug-linker from Intermediate F271 on Cys, sites not stated
B7: ADC Example 307-6497 (antibody, human IgG1, lambda)
heavy: EVQLLESGGGLVQPGGSLRLSCAASGFTFRSYAMSWVRQAPGKGLEWVSSVSGSGGSALYADSVKGRFTISRDNSKNTLYLQMNSLRAEDTAVYYCTRLTGTSFDYWGQGTLVTVSS[left out - human IgG1 constant region]
light: QSVLTQPPSASGTPGQRVTISCSGSSSNIGSNPVNWYQQLPGTAPKLLIYGNSNRPSGVPDRFSGSKSGTSASLAISGLRSEDEADYYCQSFDSSLKKVFGGGTKLTVLGQPKAAPSVTLFPPSSEELQANKATLVCLISDFYPGAVTVAWKADSSPVKAGVETTTPSKQSNNKYAASSYLSLTPEQWKSHRSYSCQVTHEGSTVEKTVAPTECS
modifications: drug-linker from Intermediate F307 on Cys, sites not stated
B8: ADC Example 308-6497 (antibody, human IgG1, lambda)
heavy: EVQLLESGGGLVQPGGSLRLSCAASGFTFRSYAMSWVRQAPGKGLEWVSSVSGSGGSALYADSVKGRFTISRDNSKNTLYLQMNSLRAEDTAVYYCTRLTGTSFDYWGQGTLVTVSS[left out - human IgG1 constant region]
light: QSVLTQPPSASGTPGQRVTISCSGSSSNIGSNPVNWYQQLPGTAPKLLIYGNSNRPSGVPDRFSGSKSGTSASLAISGLRSEDEADYYCQSFDSSLKKVFGGGTKLTVLGQPKAAPSVTLFPPSSEELQANKATLVCLISDFYPGAVTVAWKADSSPVKAGVETTTPSKQSNNKYAASSYLSLTPEQWKSHRSYSCQVTHEGSTVEKTVAPTECS
modifications: drug-linker from Intermediate F308 on Cys, sites not stated
B9: ADC Example 309-6497 (antibody, human IgG1, lambda)
heavy: EVQLLESGGGLVQPGGSLRLSCAASGFTFRSYAMSWVRQAPGKGLEWVSSVSGSGGSALYADSVKGRFTISRDNSKNTLYLQMNSLRAEDTAVYYCTRLTGTSFDYWGQGTLVTVSS[left out - human IgG1 constant region]
light: QSVLTQPPSASGTPGQRVTISCSGSSSNIGSNPVNWYQQLPGTAPKLLIYGNSNRPSGVPDRFSGSKSGTSASLAISGLRSEDEADYYCQSFDSSLKKVFGGGTKLTVLGQPKAAPSVTLFPPSSEELQANKATLVCLISDFYPGAVTVAWKADSSPVKAGVETTTPSKQSNNKYAASSYLSLTPEQWKSHRSYSCQVTHEGSTVEKTVAPTECS
modifications: drug-linker from Intermediate F309 on Cys, sites not stated
B10: ADC Example 311-8382 (antibody, human IgG1, lambda)
heavy: EVQLLESGGGLVQPGGSLRLSCAASGFTFSSYAMSWVRQAPGKGLEWVSSISGSGGSTLYADSVKGRFTISRDNSKNTLYLQMNSLRAEDTAVYYCAKLTGTSFDYWGQGTLVTVSS[left out - human IgG1 constant region]
light: QSVLTQPPSASGTPGQRVTISCSGSSSNIGSNPVNWYQQLPGTAPKLLIYSNNQRPSGVPDRFSGSKSGTSASLAITGLQSEDEADYYCQSFDSSLKKVFGGGTKLTVLGQPKAAPSVTLFPPSSEELQANKATLVCLISDFYPGAVTVAWKADSSPVKAGVETTTPSKQSNNKYAASSYLSLTPEQWKSHRSYSCQVTHEGSTVEKTVAPTECS
modifications: drug-linker from Intermediate F311 on Cys, sites not stated
B11: ADC Example 317-6497 (antibody, human IgG1, lambda)
heavy: EVQLLESGGGLVQPGGSLRLSCAASGFTFRSYAMSWVRQAPGKGLEWVSSVSGSGGSALYADSVKGRFTISRDNSKNTLYLQMNSLRAEDTAVYYCTRLTGTSFDYWGQGTLVTVSS[left out - human IgG1 constant region]
light: QSVLTQPPSASGTPGQRVTISCSGSSSNIGSNPVNWYQQLPGTAPKLLIYGNSNRPSGVPDRFSGSKSGTSASLAISGLRSEDEADYYCQSFDSSLKKVFGGGTKLTVLGQPKAAPSVTLFPPSSEELQANKATLVCLISDFYPGAVTVAWKADSSPVKAGVETTTPSKQSNNKYAASSYLSLTPEQWKSHRSYSCQVTHEGSTVEKTVAPTECS
modifications: drug-linker from Intermediate F317 on Cys, sites not stated
B12: ADC Example 317-8382 (antibody, human IgG1, lambda)
heavy: EVQLLESGGGLVQPGGSLRLSCAASGFTFSSYAMSWVRQAPGKGLEWVSSISGSGGSTLYADSVKGRFTISRDNSKNTLYLQMNSLRAEDTAVYYCAKLTGTSFDYWGQGTLVTVSS[left out - human IgG1 constant region]
light: QSVLTQPPSASGTPGQRVTISCSGSSSNIGSNPVNWYQQLPGTAPKLLIYSNNQRPSGVPDRFSGSKSGTSASLAITGLQSEDEADYYCQSFDSSLKKVFGGGTKLTVLGQPKAAPSVTLFPPSSEELQANKATLVCLISDFYPGAVTVAWKADSSPVKAGVETTTPSKQSNNKYAASSYLSLTPEQWKSHRSYSCQVTHEGSTVEKTVAPTECS
modifications: drug-linker from Intermediate F317 on Cys, sites not stated
B13: ADC Example 318-6497 (antibody, human IgG1, lambda)
heavy: EVQLLESGGGLVQPGGSLRLSCAASGFTFRSYAMSWVRQAPGKGLEWVSSVSGSGGSALYADSVKGRFTISRDNSKNTLYLQMNSLRAEDTAVYYCTRLTGTSFDYWGQGTLVTVSS[left out - human IgG1 constant region]
light: QSVLTQPPSASGTPGQRVTISCSGSSSNIGSNPVNWYQQLPGTAPKLLIYGNSNRPSGVPDRFSGSKSGTSASLAISGLRSEDEADYYCQSFDSSLKKVFGGGTKLTVLGQPKAAPSVTLFPPSSEELQANKATLVCLISDFYPGAVTVAWKADSSPVKAGVETTTPSKQSNNKYAASSYLSLTPEQWKSHRSYSCQVTHEGSTVEKTVAPTECS
modifications: drug-linker from Intermediate F318 on Cys, sites not stated

Molecular target: T1, human B7H3 on cancer cell lines
Assay: cell-based or functional assay

Compared with B1, B2 is 2.9-fold higher in “U251 CTG (IC50 M)” value: 0.0856 nM for the first, 0.249 nM for the second.

Compared with B3, B4 is 65-fold higher in “U251 CTG (IC50 M)” value: 0.0675 nM for the first, 4.37 nM for the second.

B5 and B6 are within 1.5-fold of each other in “U251 CTG (IC50 M)” value: 28.4 nM for the first, 28.7 nM for the second.

Compared with B7, B8 is 460-fold higher in “U251 CTG (IC50 M)” value: 0.466 nM for the first, 216 nM for the second.

First: B9
Second: B10
The “U251 CTG (IC50 M)” value of the first is 3.1-fold higher: 65.7 nM for the first, 21 nM for the second.

B11 and B12 are within 1.5-fold of each other in “U251 CTG (IC50 M)” value: 14.2 nM for the first, 18.1 nM for the second.

With B13 the “U251 CTG (IC50 M)” value was 47.7 nM.

Compared with B10, B11 is lower in “NCI-H292 CTG (IC50 M)” value: over 300 nM for the first, 199 nM for the second.

B12 was tested, and the “NCI-H292 CTG (IC50 M)” value was 220 nM.
